Results as given in the supplement of paper PMC8948288.
The sequences are guide strands of siRNAs; only the seed at positions 2 to 7 varies.

What was measured:
[1] = tested on: GL261; assay: cell viability relative to siNT1 (ATP content); H4 human neuroglioma and GL261 mouse glioma; higher = less toxic; details: siRNA concentration 25 nM; 96 h; mouse
[2] = tested on: H4; assay: as above; details: siRNA concentration 10 nM; 96 h; human
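Also: cells reverse transfected with siRNA duplexes via lipid reagent, ATP read by luminescence, triplicate wells, values scaled to mean viability with non-targeting control siNT1.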

UCUAAUGACAUGUAAACCA
cell viability [1]: 61.2% | cell viability [2]: 87.2%

UCUAAUUACAUGUAAACCA
cell viability [1]: 61.6% | cell viability [2]: 71.6%

UCUACAAACAUGUAAACCA
cell viability [1]: 59.3% | cell viability [2]: 98%

UCUACACACAUGUAAACCA
cell viability [1]: 69.1% | cell viability [2]: 87.3%

UCUACAGACAUGUAAACCA
cell viability [1]: 71.8% | cell viability [2]: 91.8%

UCUACAUACAUGUAAACCA
cell viability [1]: 53.9% | cell viability [2]: 122%

UCUACCAACAUGUAAACCA
cell viability [1]: 54.8% | cell viability [2]: 82.9%

UCUACCCACAUGUAAACCA
cell viability [1]: 43.5% | cell viability [2]: 67.7%

UCUACCGACAUGUAAACCA
cell viability [1]: 70.6% | cell viability [2]: 104%

UCUACCUACAUGUAAACCA
cell viability [1]: 46.6% | cell viability [2]: 83.9%

UCUACGAACAUGUAAACCA
cell viability [1]: 65.4% | cell viability [2]: 92%

UCUACGCACAUGUAAACCA
cell viability [1]: 30.1% | cell viability [2]: 79%

UCUACGGACAUGUAAACCA
cell viability [1]: 51.8% | cell viability [2]: 69.9%

UCUACGUACAUGUAAACCA
cell viability [1]: 52.1% | cell viability [2]: 83.9%

UCUACUAACAUGUAAACCA
cell viability [1]: 80.3% | cell viability [2]: 98%

UCUACUCACAUGUAAACCA
cell viability [1]: 35.1% | cell viability [2]: 91.2%

UCUACUGACAUGUAAACCA
cell viability [1]: 60.9% | cell viability [2]: 92.2%

UCUACUUACAUGUAAACCA
cell viability [1]: 65.9% | cell viability [2]: 108%

UCUAGAAACAUGUAAACCA
cell viability [1]: 70.3% | cell viability [2]: 78.1%

UCUAGACACAUGUAAACCA
cell viability [1]: 60.9% | cell viability [2]: 79.5%

UCUAGAGACAUGUAAACCA
cell viability [1]: 46.3% | cell viability [2]: 115%

UCUAGAUACAUGUAAACCA
cell viability [1]: 59.7% | cell viability [2]: 75.3%

UCUAGCAACAUGUAAACCA
cell viability [1]: 52.2% | cell viability [2]: 100%

UCUAGCCACAUGUAAACCA
cell viability [1]: 46.1% | cell viability [2]: 29%

UCUAGCGACAUGUAAACCA
cell viability [1]: 63.9% | cell viability [2]: 79.7%

UCUAGCUACAUGUAAACCA
cell viability [1]: 50.2% | cell viability [2]: 56.3%

UCUAGGAACAUGUAAACCA
cell viability [1]: 81.2% | cell viability [2]: 87.3%

UCUAGGCACAUGUAAACCA
cell viability [1]: 28.3% | cell viability [2]: 45.9%

UCUAGGGACAUGUAAACCA
cell viability [1]: 45.8% | cell viability [2]: 83.7%

UCUAGGUACAUGUAAACCA
cell viability [1]: 60.4% | cell viability [2]: 79.6%

UCUAGUAACAUGUAAACCA
cell viability [1]: 61.7% | cell viability [2]: 79.1%

UCUAGUCACAUGUAAACCA
cell viability [1]: 46.3% | cell viability [2]: 78.3%

UCUAGUGACAUGUAAACCA
cell viability [1]: 77.6% | cell viability [2]: 79.5%

UCUAGUUACAUGUAAACCA
cell viability [1]: 56% | cell viability [2]: 68.9%

UCUAUAAACAUGUAAACCA
cell viability [1]: 51.1% | cell viability [2]: 105%

UCUAUACACAUGUAAACCA
cell viability [1]: 51.4% | cell viability [2]: 89.6%

UCUAUAGACAUGUAAACCA
cell viability [1]: 61.1% | cell viability [2]: 94.5%

UCUAUAUACAUGUAAACCA
cell viability [1]: 59.6% | cell viability [2]: 78%

UCUAUCAACAUGUAAACCA
cell viability [1]: 52.7% | cell viability [2]: 114%

UCUAUCCACAUGUAAACCA
cell viability [1]: 46.4% | cell viability [2]: 84.3%

UCUAUCGACAUGUAAACCA
cell viability [1]: 60.4% | cell viability [2]: 74.4%

UCUAUCUACAUGUAAACCA
cell viability [1]: 44% | cell viability [2]: 81.8%

UCUAUGAACAUGUAAACCA
cell viability [1]: 49.8% | cell viability [2]: 76.1%

UCUAUGCACAUGUAAACCA
cell viability [1]: 14% | cell viability [2]: 45.7%

UCUAUGGACAUGUAAACCA
cell viability [1]: 33.2% | cell viability [2]: 106%

UCUAUGUACAUGUAAACCA
cell viability [1]: 32.6% | cell viability [2]: 72.3%

UCUAUUAACAUGUAAACCA
cell viability [1]: 63.3% | cell viability [2]: 97.3%

UCUAUUCACAUGUAAACCA
cell viability [1]: 32.8% | cell viability [2]: 107%

UCUAUUGACAUGUAAACCA
cell viability [1]: 50.1% | cell viability [2]: 91.5%

UCUAUUUACAUGUAAACCA
cell viability [1]: 60.8% | cell viability [2]: 77.2%

UCUCAAAACAUGUAAACCA
cell viability [1]: 30.8% | cell viability [2]: 91.4%

UCUCAACACAUGUAAACCA
cell viability [1]: 34.4% | cell viability [2]: 108%

UCUCAAGACAUGUAAACCA
cell viability [1]: 42.3% | cell viability [2]: 80%

UCUCAAUACAUGUAAACCA
cell viability [1]: 38.2% | cell viability [2]: 120%

UCUCACAACAUGUAAACCA
cell viability [1]: 28.4% | cell viability [2]: 89.3%

UCUCACCACAUGUAAACCA
cell viability [1]: 18.4% | cell viability [2]: 68.4%

UCUCACGACAUGUAAACCA
cell viability [1]: 28.9% | cell viability [2]: 107%

UCUCACUACAUGUAAACCA
cell viability [1]: 29% | cell viability [2]: 77.2%

UCUCAGAACAUGUAAACCA
cell viability [1]: 28.3% | cell viability [2]: 78.7%

UCUCAGCACAUGUAAACCA
cell viability [1]: 15.7% | cell viability [2]: 66.4%

UCUCAGGACAUGUAAACCA
cell viability [1]: 47.1% | cell viability [2]: 87.4%

UCUCAGUACAUGUAAACCA
cell viability [1]: 19.6% | cell viability [2]: 90.1%

UCUCAUAACAUGUAAACCA
cell viability [1]: 21% | cell viability [2]: 86.2%

UCUCAUCACAUGUAAACCA
cell viability [1]: 40.4% | cell viability [2]: 88.6%

UCUCAUGACAUGUAAACCA
cell viability [1]: 20.6% | cell viability [2]: 88.6%

UCUCAUUACAUGUAAACCA
cell viability [1]: 33% | cell viability [2]: 121%

UCUCCAAACAUGUAAACCA
cell viability [1]: 53.1% | cell viability [2]: 102%

UCUCCACACAUGUAAACCA
cell viability [1]: 39.8% | cell viability [2]: 100%

UCUCCAGACAUGUAAACCA
cell viability [1]: 37.5% | cell viability [2]: 94.1%

UCUCCAUACAUGUAAACCA
cell viability [1]: 46.9% | cell viability [2]: 98.1%

UCUCCCAACAUGUAAACCA
cell viability [1]: 46% | cell viability [2]: 101%

UCUCCCCACAUGUAAACCA
cell viability [1]: 37.2% | cell viability [2]: 66.3%

UCUCCCGACAUGUAAACCA
cell viability [1]: 49.1% | cell viability [2]: 98.5%

UCUCCCUACAUGUAAACCA
cell viability [1]: 52.1% | cell viability [2]: 81.7%

UCUCCGAACAUGUAAACCA
cell viability [1]: 38.7% | cell viability [2]: 87.5%

UCUCCGCACAUGUAAACCA
cell viability [1]: 11.4% | cell viability [2]: 51%

UCUCCGGACAUGUAAACCA
cell viability [1]: 40.3% | cell viability [2]: 87%

UCUCCGUACAUGUAAACCA
cell viability [1]: 35.2% | cell viability [2]: 86.9%

UCUCCUAACAUGUAAACCA
cell viability [1]: 45.4% | cell viability [2]: 83.8%

UCUCCUCACAUGUAAACCA
cell viability [1]: 20.5% | cell viability [2]: 57%

UCUCCUGACAUGUAAACCA
cell viability [1]: 46.6% | cell viability [2]: 92.8%

UCUCCUUACAUGUAAACCA
cell viability [1]: 41.5% | cell viability [2]: 83%

UCUCGAAACAUGUAAACCA
cell viability [1]: 46% | cell viability [2]: 112%

UCUCGACACAUGUAAACCA
cell viability [1]: 51.1% | cell viability [2]: 77.2%

UCUCGAGACAUGUAAACCA
cell viability [1]: 46% | cell viability [2]: 87%

UCUCGAUACAUGUAAACCA
cell viability [1]: 42.1% | cell viability [2]: 81.7%
